B1: PhoQ; a variant is named by its letters at X, in order, P23837 (parent)
chain: MKKLLRLFFPLSLRVRFLLATAAVVLVLSLAYGMVALIGYSVSFDKTTFRLLRGESNLFYTLAKWENNKLHVELPENIDKQSPTMTLIYDENGQLLWAQRDVPWLMKMIQPDWLKSNGFHEIEADVNDTSLLLSGDHSIQQQLQEVREDDDDAEMTHSVAVNVYPATSRMPKLTIVVVDTIPVELKSSYMVWSWFIYVLSANLLLVIPLLWVAAWWSLRPIEALAKEVRELEEHNRELLNPATTRELTSLVRNLNRLLKSERERYDKYRTTLTDLTHSLKTPLXXLQXXLRSLRSEKMSVSDAEPVMLEQISRISQQIGYYLHRASMRGGTLLSRELHPVAPLLDNLTSALNKVYQRKGVNISLDISPEISFVGEQNDFVEVMGNVLDNACKYCLEFVEISARQTDEHLYIVVEDDGPGIPLSKREVIFDRGQRVDTLRPGQGVGLAVAREITEQYEGKIVAGESMLGGARMEVIFGRQHSAPKDE

Some of the results follow.

Variants of B1 are the subject of the test. The test is described as follows: enrichment ratio after two sorts for PhoP signalling (ratio (wild type AVST 3.29)); higher = more functional. As to conditions: with PhoP (E. coli).
In the case of TKLQ, the enrichment ratio stood at 6.41.
For WLFW the value was not above 0.25; for RLWK, not above 0.25.
For MTPV the value was not above 0.25; for DQCT, not above 0.25.
For MFGY the value was not above 0.25; for SPAR, not above 0.25.
As for KCEY, the enrichment ratio was not above 0.25.
Consider WEIR, for which the enrichment ratio is not above 0.25.
Then QYVM, with not above 0.25; and EGAA, with not above 0.25.
As to TAAT, the enrichment ratio amounted to 6.82.
For RNKA the value was not above 0.25.
For WFSL the value was not above 0.25; for TETV, 17.9.
NLPP: the enrichment ratio is not above 0.25.
In the case of FPSK, the enrichment ratio is not above 0.25.
In the case of KFGK, the enrichment ratio is not above 0.25.
Then TGGY, with 7.07; and GGRR, with not above 0.25.
For GCFK the value was not above 0.25; for WESD, not above 0.25; for HQLC, not above 0.25.
Then MIVP, with not above 0.25; and ASKH, with not above 0.25.
For MPQL, the enrichment ratio was not above 0.25.
For MPLI the value was not above 0.25.
Regarding TLMQ, the enrichment ratio was not above 0.25.
For the variant TTAK, the enrichment ratio was found to be 1.05.
Then NFTA, with not above 0.25.
Then EYAP, with not above 0.25.
As to GRTL, the enrichment ratio was not above 0.25.
For DYLT the value was not above 0.25.
For LPYM the value was not above 0.25; for MHYY, not above 0.25.
For the variant IDHA, the enrichment ratio is not above 0.25.
Then YTDF, with not above 0.25; and YMAD, with not above 0.25.
For YAGG the value was not above 0.25; for MVEI, not above 0.25; for RYWH, not above 0.25.
As to NCGR, the enrichment ratio is not above 0.25.
On to WFCI, for which the enrichment ratio was not above 0.25.
For WFHI the value was not above 0.25; for DPVD, not above 0.25; for FWES, not above 0.25.
For SFLC the value was 4.52.
DVEI: the enrichment ratio is not above 0.25.
Then YNAK, with not above 0.25; and YQML, with not above 0.25.
LYKD: the enrichment ratio was not above 0.25.
As for WRFK, the enrichment ratio was not above 0.25.
For QMLV the value was not above 0.25; for ICPY, not above 0.25; for GTPG, not above 0.25.
Then EQHK, with not above 0.25; and YQVE, with not above 0.25.
Then DARN, with not above 0.25.
Take ITQS: the enrichment ratio was not above 0.25.
Then FTYR, with not above 0.25; and IMRS, with not above 0.25; and GSTT, with not above 0.25.
As for LGDG, the enrichment ratio is 0.39.
Then VCKT, with not above 0.25.
As for HRVA, the enrichment ratio is not above 0.25.
Then RGPL, with not above 0.25.
Regarding EIHH, the enrichment ratio is not above 0.25.
Then RLRH, with not above 0.25; and YQRY, with not above 0.25.
Then KPHH, with not above 0.25; and TTWR, with not above 0.25.
For the variant NMKV, the enrichment ratio was not above 0.25.
Turning to DMTE, the enrichment ratio was not above 0.25.
PENH: the enrichment ratio is not above 0.25.
Then SGHS, with not above 0.25; and NMGI, with not above 0.25.
Regarding GNMW, the enrichment ratio is not above 0.25.
Then MPLS, with 0.298; and QDQV, with not above 0.25; and VMFS, with not above 0.25.
For the variant DDGC, the enrichment ratio is not above 0.25.
For the variant QCLA, the enrichment ratio stood at 3.62.
Then QWHH, with not above 0.25; and DHDH, with not above 0.25.
Then KVLM, with not above 0.25.
Take PLQQ: the enrichment ratio was not above 0.25.
Regarding FRIW, the enrichment ratio was not above 0.25.
For the variant IKGI, the enrichment ratio is not above 0.25.
For NVHL the value was not above 0.25.
On to YHDG, for which the enrichment ratio was not above 0.25.
Then EFSS, with not above 0.25.
For VVQP the value was not above 0.25; for ELGD, not above 0.25.
Then VAEF, with not above 0.25.
In the case of VQGC, the enrichment ratio is not above 0.25.
As for SIVV, the enrichment ratio came to 2.38.
Turning to DIDG, the enrichment ratio is not above 0.25.
WNTE: the enrichment ratio was not above 0.25.
Consider NVSY, for which the enrichment ratio was not above 0.25.
For IFPM the value was not above 0.25; for KMDV, not above 0.25; for VVCR, 0.281.
Take QIWI: the enrichment ratio is not above 0.25.
Take IRDG: the enrichment ratio is not above 0.25.
Then RSSK, with not above 0.25; and PYVQ, with not above 0.25; and ICLW, with not above 0.25.
On to IHQE, for which the enrichment ratio is not above 0.25.
For GKER the value was not above 0.25; for DDGM, not above 0.25; for DQRA, not above 0.25.
Then AGQR, with not above 0.25.
For QSDW, the enrichment ratio is not above 0.25.
For LCCQ the value was not above 0.25; for LIEG, not above 0.25.
Then AWGD, with not above 0.25; and CVLS, with not above 0.25; and HPVS, with not above 0.25.
In the case of KHNR, the enrichment ratio is not above 0.25.
Then MAAQ, with 5.77.
For AIVL the value was 6.07; for MDRG, not above 0.25.
Consider APWC, for which the enrichment ratio was not above 0.25.
As for DPCY, the enrichment ratio was not above 0.25.
In the case of MEHI, the enrichment ratio is 4.2.
Then EVLQ, with not above 0.25; and DMIA, with not above 0.25.
With NPYP, the enrichment ratio was not above 0.25.
For GNIP the value was not above 0.25; for DTMH, not above 0.25.
For AACN the value was 12.7.
For CLMF the value was not above 0.25; for NSQV, not above 0.25.
VESR: the enrichment ratio was not above 0.25.
For the variant WRHK, the enrichment ratio is not above 0.25.
For AYPE the value was not above 0.25.
Then VNER, with not above 0.25; and TQIR, with not above 0.25.
WHDD: the enrichment ratio is not above 0.25.
As for VPMK, the enrichment ratio is not above 0.25.
Then MCIN, with not above 0.25; and HENS, with not above 0.25; and TDGI, with not above 0.25.
For NIMT the value was not above 0.25; for PMHI, not above 0.25; for MKAC, not above 0.25.
For RMEN, the enrichment ratio was not above 0.25.
Turning to FACH, the enrichment ratio is not above 0.25.
For YCAL the value was not above 0.25; for IGGQ, not above 0.25; for HTVV, not above 0.25.
Turning to PTQK, the enrichment ratio was not above 0.25.
For the variant IWCQ, the enrichment ratio was not above 0.25.
LYTT: the enrichment ratio is not above 0.25.
As to SHNK, the enrichment ratio was not above 0.25.
On to NPNR, for which the enrichment ratio was not above 0.25.
Then PTIK, with not above 0.25; and KAGG, with not above 0.25.
On to NSVD, for which the enrichment ratio was not above 0.25.
For TCMT the value was 14.5.
On to MPNI, for which the enrichment ratio is not above 0.25.
Then YFES, with not above 0.25; and MVHH, with not above 0.25; and VFFW, with not above 0.25.
In the case of DKMG, the enrichment ratio was not above 0.25.
For AYLA, the enrichment ratio was not above 0.25.
Consider WPYV, for which the enrichment ratio was not above 0.25.
For RPKF the value was not above 0.25; for THWP, not above 0.25.
For KNCH, the enrichment ratio is not above 0.25.
EEHP: the enrichment ratio is not above 0.25.
Then VMSH, with 0.366; and VYAP, with not above 0.25.
For the variant IWMG, the enrichment ratio was not above 0.25.
As for MGAS, the enrichment ratio was 7.69.
Then VPKH, with not above 0.25; and DGCD, with not above 0.25.
As for MYLA, the enrichment ratio is not above 0.25.
As for VLEM, the enrichment ratio was not above 0.25.
Consider SPAQ, for which the enrichment ratio is not above 0.25.
For the variant EWLV, the enrichment ratio is not above 0.25.
As for MEMG, the enrichment ratio came to 12.8.
As to LNDA, the enrichment ratio was not above 0.25.
On to RESR, for which the enrichment ratio is not above 0.25.
Then CNHF, with not above 0.25; and RQGC, with not above 0.25.
Then RCLR, with not above 0.25; and FTQA, with not above 0.25.
For PICR the value was not above 0.25.
Turning to TNGL, the enrichment ratio was 12.6.
Turning to NPQK, the enrichment ratio was not above 0.25.
For PQHR the value was not above 0.25; for YWLD, not above 0.25; for IEPW, not above 0.25.
For LYEL the value was not above 0.25.
For AYMP the value was not above 0.25.
Consider VKCK, for which the enrichment ratio is not above 0.25.
Regarding ENSH, the enrichment ratio was not above 0.25.
Then AMCL, with 15.7.
As for HNFS, the enrichment ratio is not above 0.25.
For VTLT the value was 2.14; for SNQP, not above 0.25; for NKCI, not above 0.25.
Take FPNW: the enrichment ratio is not above 0.25.
FCSA: the enrichment ratio was not above 0.25.
For MGIR the value was not above 0.25.
HRNQ: the enrichment ratio was 0.435.
In the case of TWDG, the enrichment ratio was not above 0.25.
Then PLIM, with not above 0.25.
For KCTR the value was not above 0.25.
Consider KPTE, for which the enrichment ratio was not above 0.25.
On to NGWR, for which the enrichment ratio is not above 0.25.
With RGDY, the enrichment ratio is not above 0.25.
With ASYY, the enrichment ratio was not above 0.25.
For RKTF the value was not above 0.25; for NIWC, not above 0.25.
Then YGQQ, with not above 0.25.
For WYYY the value was not above 0.25; for MFRD, not above 0.25; for HWGW, not above 0.25.
With TLMG, the enrichment ratio is not above 0.25.
PHWF: the enrichment ratio is not above 0.25.
For PIAV the value was not above 0.25.
As for PYVV, the enrichment ratio is not above 0.25.
In the case of KPSC, the enrichment ratio was not above 0.25.
Then QRNE, with not above 0.25; and PNDK, with not above 0.25; and YLSP, with not above 0.25.
Then WPVK, with not above 0.25; and IDKV, with not above 0.25; and TASA, with 9.05.
In the case of FGRL, the enrichment ratio was not above 0.25.
On to SKWK, for which the enrichment ratio was not above 0.25.
For the variant MAKE, the enrichment ratio was not above 0.25.
For ERWL the value was not above 0.25; for WLHP, not above 0.25; for KVAF, not above 0.25.
Then IDHV, with not above 0.25; and ASMP, with not above 0.25.
With EQWT, the enrichment ratio was not above 0.25.
Then QDTC, with not above 0.25; and KENT, with not above 0.25; and REML, with not above 0.25.
In the case of SLMW, the enrichment ratio was not above 0.25.
For NPDR the value was not above 0.25; for EMVD, not above 0.25.
Then WAPQ, with not above 0.25.
Take SLPM: the enrichment ratio amounted to 4.28.
Take SAWM: the enrichment ratio turned out to be 3.72.
MAEK: the enrichment ratio is not above 0.25.
Then MDHW, with not above 0.25.
Turning to LNHY, the enrichment ratio is not above 0.25.
For HFGA, the enrichment ratio is not above 0.25.
Then LNHP, with not above 0.25; and LMCM, with not above 0.25; and FESS, with not above 0.25.
Then IVMT, with not above 0.25; and DSLK, with not above 0.25.
For YIRF, the enrichment ratio is not above 0.25.
For FWYQ the value was not above 0.25; for FNPD, not above 0.25; for DYPK, not above 0.25.
For FKGM the value was not above 0.25; for YMLQ, not above 0.25.
For the variant AWYY, the enrichment ratio is not above 0.25.
For the variant QFAT, the enrichment ratio is not above 0.25.
Then YGFP, with not above 0.25.
As to VYQY, the enrichment ratio was not above 0.25.
RWWA: the enrichment ratio is not above 0.25.
Then VTSR, with not above 0.25; and MNWS, with 7.32; and NLQY, with not above 0.25.
Then FHWP, with not above 0.25.
Then KRHI, with not above 0.25.
In the case of RNCK, the enrichment ratio is not above 0.25.
For GTVG the value was 1.38; for FPID, not above 0.25.
For the variant TQRP, the enrichment ratio is not above 0.25.
Consider TAKR, for which the enrichment ratio is not above 0.25.
Then RAQL, with not above 0.25; and VKSA, with not above 0.25.
Then MQPQ, with not above 0.25; and IHSA, with not above 0.25.
For FSRW the value was not above 0.25; for YIYL, not above 0.25; for NRDP, not above 0.25.
For PPMV, the enrichment ratio is not above 0.25.
For the variant INDF, the enrichment ratio was not above 0.25.
For RSYG the value was not above 0.25.
For DTLY the value was not above 0.25.
Then VPIF, with not above 0.25; and KHHE, with not above 0.25.
LATK: the enrichment ratio was not above 0.25.
Then ENGA, with not above 0.25; and VKAR, with not above 0.25.
Turning to QAPL, the enrichment ratio is not above 0.25.
Then NKPD, with not above 0.25; and QPCT, with not above 0.25.
Consider PKPW, for which the enrichment ratio was not above 0.25.
YGNS: the enrichment ratio is not above 0.25.
Turning to ISAV, the enrichment ratio was 0.486.
For LNQY the value was not above 0.25; for NNTM, 3.1; for NMFS, not above 0.25.
Then AWYH, with not above 0.25.
For VKTR the value was not above 0.25.
